# Experimental data reported in the supplement of paper PMC10037445.
# Whole data set: some 2,900 compounds, median “NF-kB SEAP reporter activity, fold change vs agonist alone” near 0.99, cut for the highest 2% near 2.6. The list shows a part of the results.
# Tests used:
# RAW-Dual [1] = assay: NF-kB SEAP reporter activity, fold change vs agonist alone; cytotoxicity flag (confluency mask): not cytotoxic; higher = enhanced NF-kB activity
# Summary of the method: (§1)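 Reporter activity is given as fold change relative to agonist-alone wells. To measure it, 50 nL of library stock was pin-tooled onto RAW-Dual macrophages (50,000 cells/well, DMEM, 384-well plates), a PRR agonist followed 1 h later, and cells stayed at 37 °C, 5% CO2. Twenty hours on, supernatant was assayed for IRF (QuantiLuc luminescence) and NF-κB (QuantiBlue, 620 nm absorbance), and wells under 70% of agonist-control IncuCyte confluency in both mask sets were marked cytotoxic.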
# RAW-Dual [2] = assay: NF-kB SEAP reporter activity, fold change vs agonist alone; higher = enhanced NF-kB activity; conditions: library stock concentration (final ~1000-fold dilution): 10 mM
# Summary of the method: as §1
# RAW-Dual [3] = assay: NF-kB SEAP reporter activity, fold change vs agonist alone; cytotoxicity flag (confluency mask): cytotoxic (confluency <70% of control); higher = enhanced NF-kB activity
# Summary of the method: as §1
# [4] = agonist: ODN 1826 (TLR9) 0.5 ug/mL
# [5] = agonist: Pam2CSK4 (TLR2/6) 0.1 ug/mL
# [6] = agonist: Pam3CSK4 (TLR2/1) 0.1 ug/mL
# [7] = cytotoxicity flag (confluency mask): not cytotoxic, agonist: Imiquimod (TLR7) […]
# [8] = cytotoxicity flag (confluency mask): not cytotoxic, agonist: MPLA (TLR4) […]
# [9] = cytotoxicity flag (confluency mask): cytotoxic (confluency <70% of control), agonist: Imiquimod (TLR7) […]
# [10] = cytotoxicity flag (confluency mask): cytotoxic (confluency <70% of control), agonist: MPLA (TLR4) […]
structure (smiles),measurement,setting,value
CC(=O)NC(Cc1ccc(O)cc1)C(=O)NC(CCCNC(=N)N)C(=O)NC(Cc1ccccc1)C(N)=O (stereo not drawn) (library stock concentration (final ~1000-fold dilution): 10 mM),NF-kB SEAP reporter activity,RAW-Dual [1]; agonist: LPS (TLR4) 0.1 ug/mL,1.02
same,NF-kB SEAP reporter activity,RAW-Dual [1]; [4],1.12
same,NF-kB SEAP reporter activity,RAW-Dual [1]; [5],1.12
same,NF-kB SEAP reporter activity,RAW-Dual [1]; [6],1.01
CC(=O)NC(Cc1ccc(O)cc1)C(=O)NC(CCCNC(=N)N)C(=O)NC(Cc1ccccc1)C(N)=O (stereo not drawn),NF-kB SEAP reporter activity,RAW-Dual [2]; [7],0.943
same,NF-kB SEAP reporter activity,RAW-Dual [2]; [8],1
Cc1cc(C(C)Nc2ccccc2C(=O)O)c2nc(N3CCOCC3)cc(=O)n2c1 (stereo not drawn) (library stock concentration (final ~1000-fold dilution): 10 mM),NF-kB SEAP reporter activity,RAW-Dual [1]; agonist: LPS (TLR4) 0.1 ug/mL,1.72
same,NF-kB SEAP reporter activity,RAW-Dual [1]; [4],1.24
same,NF-kB SEAP reporter activity,RAW-Dual [1]; [5],0.989
same,NF-kB SEAP reporter activity,RAW-Dual [1]; [6],1.08
Cc1cc(C(C)Nc2ccccc2C(=O)O)c2nc(N3CCOCC3)cc(=O)n2c1 (stereo not drawn),NF-kB SEAP reporter activity,RAW-Dual [2]; [7],0.776
same,NF-kB SEAP reporter activity,RAW-Dual [2]; [8],0.98
COc1c(C)cnc(Cn2cnc3c(Cl)nc(N)nc32)c1C (library stock concentration (final ~1000-fold dilution): 10 mM),NF-kB SEAP reporter activity,RAW-Dual [3]; agonist: LPS (TLR4) 0.1 ug/mL,0.245
same,NF-kB SEAP reporter activity,RAW-Dual [3]; [4],0.19
same,NF-kB SEAP reporter activity,RAW-Dual [3]; [5],0.159
same,NF-kB SEAP reporter activity,RAW-Dual [3]; [6],0.146
COc1c(C)cnc(Cn2cnc3c(Cl)nc(N)nc32)c1C,NF-kB SEAP reporter activity,RAW-Dual [2]; [9],0.242
same,NF-kB SEAP reporter activity,RAW-Dual [2]; [10],0.433
COc1ccc2c(Oc3ccc(NC(=O)c4c(C)n(CC(C)(C)O)n(-c5ccccc5)c4=O)nc3)ccnc2c1,NF-kB SEAP reporter activity,RAW-Dual [2]; [7],0.867
same,NF-kB SEAP reporter activity,RAW-Dual [2]; [8],0.896
COc1ccc2c(Oc3ccc(NC(=O)c4c(C)n(CC(C)(C)O)n(-c5ccccc5)c4=O)nc3)ccnc2c1 (library stock concentration (final ~1000-fold dilution): 10 mM),NF-kB SEAP reporter activity,RAW-Dual [1]; agonist: LPS (TLR4) 0.1 ug/mL,0.793
same,NF-kB SEAP reporter activity,RAW-Dual [1]; [4],0.567
same,NF-kB SEAP reporter activity,RAW-Dual [1]; [5],0.472
same,NF-kB SEAP reporter activity,RAW-Dual [1]; [6],0.485
CC(C)c1cccc(O)c(=O)c1 (library stock concentration (final ~1000-fold dilution): 10 mM),NF-kB SEAP reporter activity,RAW-Dual [1]; agonist: LPS (TLR4) 0.1 ug/mL,0.57
same,NF-kB SEAP reporter activity,RAW-Dual [1]; [4],0.772
same,NF-kB SEAP reporter activity,RAW-Dual [1]; [5],0.42
same,NF-kB SEAP reporter activity,RAW-Dual [1]; [6],0.431
CC(C)c1cccc(O)c(=O)c1,NF-kB SEAP reporter activity,RAW-Dual [2]; [7],0.881
same,NF-kB SEAP reporter activity,RAW-Dual [2]; [8],0.956
Cc1csc(-c2nnc(Nc3ccc(Oc4ncccc4-c4ccnc(N)n4)cc3)c3ccccc23)c1,NF-kB SEAP reporter activity,RAW-Dual [2]; [9],0.335
same,NF-kB SEAP reporter activity,RAW-Dual [2]; [10],0.28
Cc1csc(-c2nnc(Nc3ccc(Oc4ncccc4-c4ccnc(N)n4)cc3)c3ccccc23)c1 (library stock concentration (final ~1000-fold dilution): 10 mM),NF-kB SEAP reporter activity,RAW-Dual [3]; agonist: LPS (TLR4) 0.1 ug/mL,0.215
same,NF-kB SEAP reporter activity,RAW-Dual [3]; [4],0.233
same,NF-kB SEAP reporter activity,RAW-Dual [3]; [5],0.123
same,NF-kB SEAP reporter activity,RAW-Dual [3]; [6],0.212
O=c1ncccn1C1OC(CO)C(O)C1O (stereo not drawn),NF-kB SEAP reporter activity,RAW-Dual [2]; [7],0.949
same,NF-kB SEAP reporter activity,RAW-Dual [2]; [8],0.947
O=c1ncccn1C1OC(CO)C(O)C1O (stereo not drawn) (library stock concentration (final ~1000-fold dilution): 10 mM),NF-kB SEAP reporter activity,RAW-Dual [1]; agonist: LPS (TLR4) 0.1 ug/mL,1.04
same,NF-kB SEAP reporter activity,RAW-Dual [1]; [4],0.93
same,NF-kB SEAP reporter activity,RAW-Dual [1]; [5],0.908
same,NF-kB SEAP reporter activity,RAW-Dual [1]; [6],0.896
O=C(O)c1cc2cccc([N+](=O)[O-])c2[nH]1 (library stock concentration (final ~1000-fold dilution): 10 mM),NF-kB SEAP reporter activity,RAW-Dual [1]; agonist: LPS (TLR4) 0.1 ug/mL,1.15
same,NF-kB SEAP reporter activity,RAW-Dual [1]; [4],0.95
same,NF-kB SEAP reporter activity,RAW-Dual [1]; [5],1.03
same,NF-kB SEAP reporter activity,RAW-Dual [1]; [6],1.07
O=C(O)c1cc2cccc([N+](=O)[O-])c2[nH]1,NF-kB SEAP reporter activity,RAW-Dual [2]; [7],0.921
same,NF-kB SEAP reporter activity,RAW-Dual [2]; [8],1.07
